Laboratory results reported in PubChem BioAssay AID1345082 (National Center for Advancing Translational Sciences (NCATS), 2018).
The campaign covered roughly 94,000 compounds. About 4,000 (4.3%) were called active. Inconclusive means that the source gave no clear call. Such entries were picked first, then a sample of the others. Calls follow the shape of the dose curve; as a rule, active = well fitted inhibition curve with a large enough effect; inconclusive = small, poorly fitted or top-dose-only effect; inactive = no such curve, though single readings can be large or run the other way. Potencies of inconclusive entries are doubtful fits and often do not repeat.

Assay: Cytotoxic Profiling in NIH 3T3 Cell Line of Diverse Libraries Using Quantitative High-Throughput Screening; also: nearly all actives have a fitted effect of over 55% in size
Details: NIH 3T3 viability, CellTiter-Glo ATP luminescence, 48-72 h; activity change, negative = cytotoxicity: at 96.7 µM (top of the series) unless noted; series mostly up to 96.7 µM
How it was run: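 NIH 3T3 cells at 400 cells/well received 23 nL of compound by pintool and were incubated 48 or 72 h at 37 °C. Viability was read as ATP-coupled CellTiter-Glo luminescence.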
% is scaled to controls: 0 for no effect and ±100 for the full control effect; potency is read from the fitted curve at half-maximal effect; tags tell the direction and shape of the fitted curve.

Row | Compound | Potency | activity change, negative = cytotoxicity | outcome
1 | O=C(NCCCN1CCc2ccccc2C1)C1Cn2cccc2C(=O)N1Cc1ccccc1 (stereo unspecified) | inconclusive: 56.2 µM [inhibitor, partial curve, poor fit] | – | –
2 | c1ccc2c(c1)CC(n1ccnc1-c1cc3n(n1)CCCNC3)C2 | inconclusive: 79.4 µM [inhibitor, partial curve] | – | –
3 | CC(=O)Nc1cccc(C(=O)NCCc2nc3c(C)c(C)ccc3[nH]2)c1 | – | inactive: -8.02% | –
4 | CSCCC(=O)N1CCc2[nH]nc(-c3ccc(C(F)(F)F)cc3)c2C1 | inconclusive: 56.2 µM [inhibitor, partial curve, poor fit] | – | –
5 | COc1ccc(C(=O)N2CCc3nc(N)nc(N4CCCC4)c3CC2)o1 | – | inactive: -2.27% | –
6 | Cc1ccc(CN2CCCCCCNC(=O)[C@@H]3CCC[C@@H]32)s1 | inconclusive: 70.8 µM [inhibitor, single point] | – | –
7 | COc1ccc(CN2C(=O)[C@@H]3C[C@@H](CN3CC3CC3)Oc3ccccc32)cc1 | active: 79.4 µM | – | –
8 | COCCN[C@@H]1C[C@@H]2c3[nH]c4ccccc4c3C[C@@H](C(=O)OC)N2[C@H](c2ccc(C(C)C)cc2)C1 | active: 28.2 µM | – | –
9 | CCS(=O)(=O)N1CCOc2ccc(CN3CCc4ccccc4C3)cc2C1 | – | inactive: -14% | –
10 | Cn1cccc1CN1CCC(N2CCNC2=O)CC1 | – | – | inactive [at 138 µM]
11 | Cc1noc(-c2ccc(OC3CN(C(=O)NCC(C)C)C3)cc2)n1 | inconclusive: 25.1 µM [inhibitor, partial curve] | – | –
12 | CCC(C)NC(=O)C1CCN(Cc2ccccc2-c2ccccc2F)CC1 (stereo unspecified) | inconclusive: 50.1 µM [inhibitor, partial curve, poor fit] | – | –
13 | Cc1cc(C)n(CCC(=O)NCCc2noc(-c3ccccc3)n2)n1 | – | inactive: 1.51% | –
14 | N#Cc1ccc(CNC(=O)[C@@H]2Cc3nc[nH]c3CN2C(=O)NC2CCCCC2)cc1 | inconclusive: 126 µM [inhibitor, partial curve, poor fit] | – | –
15 | COC[C@H]1CCCN1Cc1nc(C2(O)CCN(C3CCN(C)CC3)CC2)cs1 | inconclusive: 100 µM [inhibitor, partial curve, poor fit] | – | –
16 | O=C(c1cccs1)N1CCN(Cc2ccc(=O)n(CC3CC3)c2)CC1 | inconclusive: 20 µM [inhibitor, full curve] | – | –
17 | O=C(NCc1cccs1)c1cc(-c2ccccc2)c2nncn2n1 | – | inactive: -25.2% | –
18 | O=C(c1ccc(Cl)cc1)N1CCC2(C1)C(=O)N(Cc1ccccc1)c1ccccc12 (stereo unspecified) | inconclusive: 50.1 µM [inhibitor, partial curve, poor fit] | – | –
19 | O=C(c1ccc(Cl)cc1)N1CCC2(C1)C(=O)N(c1ccccc1)c1ccccc12 (stereo unspecified) | inconclusive: 50.1 µM [inhibitor, partial curve, poor fit] | – | –
20 | CCOc1ccc(CC(=O)N2CCN(c3cc(-c4ccc(Cl)cc4)[nH]n3)CC2)cc1 | inconclusive: 8.91 µM [inhibitor, full curve, poor fit] | – | –
21 | CCOC(=O)[C@@H]1CN(C(=O)Nc2ccccc2)[C@H]2c3ccc(OC)cc3O[C@@H]12 | inconclusive: 70.8 µM [inhibitor, single point] | – | –
22 | COc1ccc(-c2cnc3[nH]cc(CC(=O)NCCN(C)C)c3c2)cc1 | active: 50.1 µM | – | –

Row | Compound | Potency | activity change, negative = cytotoxicity | outcome
23 | Cc1nn(-c2ccccc2)c2c1C(C)N(C1CCN(C(=O)c3ccc(Cl)cc3)C1)C2=O (stereo unspecified) | inconclusive: 14.1 µM [inhibitor, partial curve, poor fit] | – | –
24 | Cc1noc(C)c1Cc1ccc(C(=O)N2CCCCCCNC(=O)[C@@H]3CCCC[C@@H]32)o1 | inconclusive: 56.2 µM [inhibitor, partial curve, poor fit] | – | –
25 | O=C(NCC(F)(F)F)C1CCCN(c2nccc(Nc3ccccc3F)n2)C1 (stereo unspecified) | inconclusive: 44.7 µM [inhibitor, partial curve, poor fit] | – | –
26 | CC(=O)N1CCN(C(=O)CNC(=O)c2cccc(-c3ccsc3)c2)CC1 | – | inactive: 4.04% | –
27 | COc1ccc(F)cc1-c1ccc(CN2CCC(NC(=O)c3ccc(Cl)cc3)C2)cc1 (stereo unspecified) | active: 14.1 µM | – | –
28 | CC(C)c1noc(CC2CCN(C(=O)c3ccccn3)CC2)n1 | – | – | inactive
29 | CCn1ccc(C(=O)N2CC(Oc3ccc(-c4nc(-c5ccccc5)no4)cc3)C2)n1 | active: 39.8 µM | – | –
30 | CNC(=O)c1cc(C2CC2)nc2c1c(C1CCCN(C(=O)C3CC3)C1)nn2C (stereo unspecified) | – | inactive: -30.8% | –
31 | O=C(NCC1Cn2cccc2CN1Cc1ccccc1)c1n[nH]c2ccccc12 (stereo unspecified) | inconclusive: 79.4 µM [inhibitor, partial curve, poor fit] | – | –
32 | Cc1ccc(-c2cn3cc(C(=O)N4CCCCC4)nc3s2)cc1 | inconclusive: 100 µM [inhibitor, partial curve, poor fit] | – | –
33 | COCC1CN(C)CC12CCN(C(=O)c1nccc3ccccc13)CC2 (stereo unspecified) | – | inactive: 0.306% | –
34 | N#Cc1cccc(N2CCN(Cc3ccc(F)c(Cl)c3F)CC2)n1 | inconclusive: 56.2 µM [inhibitor, partial curve, poor fit] | – | –
35 | Cc1onc(-c2cnn(C)c2NCc2ccccc2)c1C(=O)N1CCC(c2ccccc2)CC1 | inconclusive: 70.8 µM [inhibitor, single point] | – | –
36 | CC1=C(C(=O)Nc2ccccc2)C(c2cc(C)ccc2C)N2C(CC(=O)NC(C)C)=CSC2=N1 (stereo unspecified) | inconclusive: 70.8 µM [inhibitor, partial curve, poor fit] | – | –
37 | Cc1cn2nc(C(=O)NCc3ccco3)cc2c(=O)[nH]1 | – | – | inactive
38 | COc1cc(-c2[nH]ncc2CN2CCN(c3ccc(Cl)cn3)CC2)cc(OC)c1OC | inconclusive: 56.2 µM [inhibitor, partial curve, poor fit] | – | –
39 | Cc1ccc2c(C(=O)NCCc3cccs3)cc(NC(=O)C3CCC3)cc2n1 | inconclusive: 70.8 µM [inhibitor, single point] | – | –
40 | O=C(NCCn1ccn2nc(-c3ccc(F)cc3)cc2c1=O)c1n[nH]c2c1CCCC2 | inconclusive: 50.1 µM [inhibitor, partial curve, poor fit] | – | –
41 | CCn1c2ccccc2c2cc(C(=O)N3C[C@@H](Oc4ccccc4)C[C@@H]3C(=O)NC)ccc21 | inconclusive: 44.7 µM [inhibitor, partial curve, poor fit] | – | –
42 | CC(C)NC(=O)C1=NOC2CN(C(=O)c3ccn(C)n3)CC12 (stereo unspecified) | – | – | inactive
43 | CN1CCc2nc(N3CCN(C(=O)CCC4CCCC4)CC3)sc2C1 | – | inactive: -13.8% | –
44 | CC(C)C(=O)N1Cc2ccccc2CC2(CCCN(CC3CCCCC3)C2)C1 (stereo unspecified) | inconclusive: 70.8 µM [inhibitor, single point] | – | –

Row | Compound | Potency | activity change, negative = cytotoxicity | outcome
45 | Cc1ccc(NC(=O)N2CC[C@@H]3C(=O)NCCCCCCN(Cc4ccncc4)[C@@H]3C2)cc1C | inconclusive: 44.7 µM [inhibitor, partial curve, poor fit] | – | –
46 | Cc1noc(C)c1-c1cc(-c2cccc3cc[nH]c23)cn2cncc12 | active: 28.2 µM | – | –
47 | Cc1cc(CC(C)NC(=O)Cc2c(C)[nH]c3ccccc23)n[nH]1 (stereo unspecified) | – | inactive: -21.5% | –
48 | CC1=C[C@@H](CN2CCCCC2)[C@H](C(C)C)C[C@H]1Cc1nnc(-c2cncn2C)o1 | inconclusive: 39.8 µM [inhibitor, partial curve, poor fit] | – | –
49 | Cc1noc2c(NCCc3ccccn3)cc(-c3ccccc3)nc12 | inconclusive: 56.2 µM [inhibitor, partial curve, poor fit] | – | –
50 | O=C(NCCc1ccc(Cl)cc1)c1ccc2nnc(-c3ccoc3)n2c1 | inconclusive: 39.8 µM [inhibitor, partial curve, poor fit] | – | –
51 | COc1ccc(-c2cc(C(=O)NC3CC3)c3c(C4CCCN4)nn(C)c3n2)cc1 (stereo unspecified) | inconclusive: 44.7 µM [inhibitor, partial curve, poor fit] | – | –
52 | CCN1c2cc(C(=O)Nc3cccc(Cl)c3)ccc2C(=O)N2CCCCCC21 (stereo unspecified) | active: 39.8 µM | – | –
53 | O=C(NCc1cc(F)cc(F)c1)c1nnn2c1COC(c1ccc(Br)cc1)C2 (stereo unspecified) | inconclusive: 50.1 µM [inhibitor, partial curve, poor fit] | – | –
54 | COc1ccc(CN2CCN3C(=O)N(Cc4ccc(OC)cc4)C[C@H]3C2)cc1 | inconclusive: 50.1 µM [inhibitor, partial curve] | – | –
55 | CN(C)C[C@H]1O[C@H](Cc2cc(-c3ccc(F)cc3)on2)CC[C@@H]1O | – | inactive: -30% [at 138 µM] | –
56 | O=C(c1ccc(CO)o1)N1CCc2c(nc(-c3ccncc3)[nH]c2=O)C1 | – | inactive: -0.943% | –
57 | COc1ccc(CNC(=O)Cn2cccc2-c2nc(-c3ccc4c(c3)OCO4)no2)cc1OC | – | – | inactive
58 | CC(C)c1nnc(CN2CCOc3c(O)cc(-c4cccc(Cl)c4)cc3C2)o1 | inconclusive: 79.4 µM [inhibitor, partial curve, poor fit] | – | –
59 | COCC(=O)N[C@@H]1CN(Cc2cc(F)c(F)c(F)c2)C[C@H]1CO | – | inactive: 3.17% | –
60 | COC(=O)N1CCN(CCn2nc3n(c2=O)CCCC3)CC1 | – | inactive: -16.3% [at 138 µM] | –
61 | O=C(OCc1ccccc1)N1C[C@@H](CO)[C@@H]2Oc3c(F)cccc3[C@@H]21 | inconclusive: 50.1 µM [inhibitor, partial curve, poor fit] | – | –
62 | COc1ccc(-c2ccc(C(=O)N3CCN([S+](=O)([O-])C(C)C)CC3)cc2)nn1 | – | inactive: -29.6% | –
63 | O=C(c1ccsc1)N1CCC(Oc2ccccc2)C1 (stereo unspecified) | – | inactive: -10% | –
64 | Cc1ccccc1N1CCN(C(=O)[C@@]23CCCC[C@H]2N(CCC(C)C)C(=O)CC3)CC1 | inconclusive: 50.1 µM [inhibitor, partial curve, poor fit] | – | –
65 | CCOc1ccc(C(=O)N2CCC3(CC2)NC(=O)N(Cc2ccc(F)cc2)C3=O)cc1 | inconclusive: 50.1 µM [inhibitor, single point] | – | –
66 | Cn1cccc1CN1CCCC2(C1)C(=NC1CCCC1)NC(=O)N2c1cc(F)cc(F)c1 (stereo unspecified) | inconclusive: 17.8 µM [inhibitor, full curve] | – | –
